Assay results taken from US20100226974A1, “ANTIBODY RECOGNIZING ANTIGEN” (MITSUBISHI TANABE PHARMA CORPORATION, priority 2002, published 2010).

Legend:
[1] = test system: tumor cells formed by subcutaneous transplantation of MKN45 vs cultured cells of MKN45; assay: Reactivity comparison of FITC-labeled GAH antibody by flow cytometry; type: binding, human; conditions: FITC-labeled antibody 20 μg/ml, 4° C., 1 hour; FL1 mean channel number minus background
Protocol: A human gastric cancer cell MKN45 (Immuno-Biological Laboratories) was cultured in a liquid medium eRDF (Gibco) containing 10% fetal bovine serum (Sigma), and the resulting cells were recovered and subcutaneously transplanted under the back of an about 5-week-old BALB/C node mouse (CLEA Japan). The thus formed subcutaneous tumor tissue was extracted, and a cell was isolated from the tissue in accordance with the method of Tokita et al., [Gan no Rinsho (Clinical Cancera), 32, 1803 (1986)]. The tissue was put on a Teflon sheet spread on a rubber plate, cut into thin pieces by tapping with a razor, and then passed through a nylon mesh (a cell strainer, FALCON) to remove the connective tissue. […]
Cultured cells of MKN45 or cells of a solid tumor (hereinafter referred to as “tumor cells”) formed by subcutaneous transplantation of MKN45 were allowed to react with the GAH antibody described in EP-A-520499 and EP-A-1174126, which had been labeled with fluorescein isothiocyanate (FITC: Sigma), in a concentration of 20 μg/ml at 4° C. for 1 hour, and then washed once with phosphate buffered saline (PBS). […] By calculating the mean channel number of FL1 as an index of FITC fluorescence intensity, comparison of the cultured cells and tumor cells of MKN45 was carried out.

[2] = test system: tissue sections derived from nmMHCA-stably expressing cell lines (FL1, FL2, FL7); assay: Immuno-staining of nude mouse transplantation cancer cell sections using nmMHCA-expressing HCT-15 cell lines; type: binding, human; conditions: nmMHCA-stably expressing lines compared with mock cell section; biotin-labeled antibody, 37° C., 2 hours
Protocol: Various nmMHCA-stably expressing cell lines of HCT-15 were suspended in MatriGel (Becton Dickinson) and subcutaneously transplanted into 2 spots under the back of a nude mouse at a dose of 5×10^6 cells/spot. Tumor was extracted after confirming its development, and a part thereof was soaked in 10% formalin-PBS to prepare paraffin sections, followed by hematoxylin-eosin (HE) staining at Nara Pathology Institute.
Each section was treated with xylene and ethanol to remove paraffin, soaked in 10 mM sodium citrate, pH 6.0 buffer, exposed to microwave (3 times, 600 W 5 minutes for each), air-cooled by allowing to stand at room temperature for 30 minutes, and then soaked in 5% (w/v) BSA-PBSAz solution for 1 hour. The section was incubated with 66 μg/ml of biotin-labeled F(ab′)2 fragment of GAH antibody, or 100 μg/ml of biotin-labeled anti-nmMHC antibody, at 37° C. for 2 hours, and then allowed to react with 2.5 times diluted streptoavidin PerCP (Becton Dickinson) under ice-cooling and shade. After the reaction, red fluorescence of PerCP in the same visual field of each section was observed using Olympus incident-light fluorescence microscope BX-50.

[3] = test system: nmMHCA-stably expressing cell line of COS-7; assay: Cell surface reactivity (antibody binding number) by flow cytometry, transplanted tumor cells of nmMHCA-stably expressing COS-7; set-up: species or system Cercopithecus aetiopus; conditions: FITC-labeled antibody 33 μg/ml in human serum
Protocol: (§1) An nmMHCA-stably expressing cell line was suspended in MatriGel and subcutaneously transplanted into 2 spots under the back of a nude mouse at a dose of 5×10^6 cells/spot. Tumor was extracted after confirming its development and cut into thin pieces to collect tumor cells. FITC-labeled GAH antibody or FITC-labeled human immunoglobulin was diluted with human serum (Scanty Bodies Laboratory) to a concentration of 33 μg/ml. Also, FITC-labeled anti-nmMHC antibody or FITC-labeled rabbit IgG was diluted with human serum to a concentration of 50 μg/ml. These antibody solutions were thoroughly mixed with each of tumor cells and allowed to react for 1 hour under shade and ice-cooling. […] Cells were suspended in FACSflow (buffer attached to the flow cytometer) solution containing 5 μg/ml PI, PI-positive cells, namely dead cells, were excluded from the subject of analysis by gating operation in the same manner as in Example 1, and the mean value of FITC fluorescence intensity per one cell in the intact cell population was calculated. A calibration curve was prepared from the mean value, measured under the same condition, of fluorescence intensity of standard fluorescent beads (Flow Cytometry Standards) wherein the number of bound FITC molecules is already known, and the mean value of each sample was converted into the amount of bound FITC. […]

[4] = test system: nmMHCA-stably expressing cell line of HCT-15; assay: Cell surface reactivity (antibody binding number) by flow cytometry, transplanted tumor cells of nmMHCA-stably expressing HCT-15; conditions: FITC-labeled antibody 33 μg/ml in human serum
Protocol: as §1

B1: GAH antibody: human monoclonal antibody disclosed in EP-A-520499; heavy and light chain variable regions SEQ ID NOs:7 and 8 (antibody, listed as Homo sapiens, V domains shown)
VH: QVQLQESGPGLVKPSQTLSLTCTVSGGSISSCGFYWNWIRQHPGKGLEWIGYIYYSGSTYYNPSLKSRVTISLDTSKSQFSLKLSSLTAADTAVYYCARSTRLRGADYWGQGTMVTVSS
VL: DIVMTQSPDSLAVSLGERATINCKSSQSVLYNSNNKKYLAWYQQKPGQPPKLLIYWASTRESGVPDRFSGSGSGTDFTLTISSLQAEDVAVYYCQQYYSTPWTFGQGTKVEIKR
With B1 the “reactivity for the tumor cells relative to the cultured cells of MKN45” value [1] was “about 18 times”, the “red fluorescence of PerCP in tissue sections” value [2] was “strong red fluorescence” and the “reactivity (antibody binding number) in comparison with the mock cell line” value [3] was “increased”. For the same molecule, the “reactivity (antibody binding number) in comparison with the mock cell line” value [4] was “increased”.
